Counter-ions that a name gives are not always drawn. ± gives the standard deviation of the averaged measurements. Some of the results follow.
Experiments:
Details in all cases: priming compound concentration 100 µM
hAMSC donor 1 [1] = experiment: Hoechst total cell count ratio vs vehicle control; higher = more cells (less toxicity)
hAMSC donor 2 [2] = experiment: as above
hAMSC donor 1 [3] = experiment: transgenic luciferase activity (RLU/mg protein) fold change vs vehicle control (ratio); higher = more transgene expression
hAMSC donor 1 [4] = experiment: transfection efficiency (EGFP+ cells / Hoechst count) fold change vs vehicle control (ratio); higher = enhanced transfection
hAMSC donor 2 [5] = experiment: as above
hAMSC donor 2 [6] = experiment: transgenic luciferase activity (RLU/mg protein) fold change vs vehicle control (ratio); hAMSC are human adipose-derived mesenchymal stem cells given an EGFP-luciferase plasmid by lipofection; higher = more transgene expression
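Wherever Hoechst total cell count ratio vs vehicle control is given: compound added 30 min before Lipofectamine 3000 lipoplex delivery, triplicate-well means expressed against DMSO vehicle control wells of the same 96-well plate.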
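Wherever transfection efficiency (EGFP+ cells / Hoechst count) fold change vs vehicle control is given: compounds added 30 min before Lipofectamine 3000 lipoplex transfection, triplicate means relative to DMSO vehicle wells on the same plate, luciferase RLU normalized to BCA total protein.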
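Wherever transgenic luciferase activity (RLU/mg protein) fold change vs vehicle control is given: compounds in DMSO added 30 min before Lipofectamine 3000 transfection of pEGFP-Luc in 96-well plates, values are means of triplicate wells over DMSO vehicle wells on the same plate.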

SMILES | Hoechst total cell count ratio (hAMSC donor 1 [1]) | Hoechst total cell count ratio (hAMSC donor 2 [2]) | transgenic luciferase activity (hAMSC donor 1 [3]) | transfection efficiency (hAMSC donor 1 [4]) | transfection efficiency (hAMSC donor 2 [5]) | transgenic luciferase activity (hAMSC donor 2 [6])
NC1CCN(c2cccc(Cl)n2)CC1 | 1.75 ± 0.29 | 1.2 ± 0.41 | 0.443 ± 0.32 | 0.935 ± 0.14 | 0.927 ± 0.17 | 
Nc1ccc(O)c(C(=O)O)c1 [Mesalamine] | 1.266 ± 0.0092 | 1.18 ± 0.13 | 0.651 ± 0.13 | 0.563 ± 0.11 | 0.704 ± 0.25 | 
CCCC(=O)Nc1ccc(OCC(O)CNC(C)C)c(C(C)=O)c1 (centres undefined) [Acebutolol hydrochloride] | 0.905 ± 0.16 | 1.23 ± 0.058 | 0.275 ± 0.24 | 0.878 ± 0.24 | 0.844 ± 0.085 | 
C[N+](C)(C)C[C@H](O)CC(=O)[O-] [L-Carnitine inner salt] | 1.17 ± 0.026 | 1.26 ± 0.29 | 0.686 ± 0.17 | 0.966 ± 0.41 | 0.836 ± 0.28 | 
CNCCCC12CCC(c3ccccc31)c1ccccc12 [Maprotiline hydrochloride] | 0.267 ± 0.036 | 0.064 ± 0.025 |  | 0.469 ± 0.63 | 0.477 ± 0.2 | 
O=C(O)C[C@H](O)C[C@H](O)/C=C/c1c(C2CC2)nc2ccccc2c1-c1ccc(F)cc1 [Itavastatin calcium] | 1.16 ± 0.089 | 0.538 ± 0.019 | 0.462 ± 0.12 | 0.6 ± 0.086 | 2.04 ± 0.37 | 
CC[C@H]1OC(=O)[C@H](C)[C@@H](O[C@H]2C[C@@](C)(OC)[C@@H](O)[C@H](C)O2)[C@H](C)[C@@H](O[C@@H]2O[C@H](C)C[C@H](N(C)C)[C@H]2O)[C@](C)(O)C[C@@H](C)C(=O)[C@H](C)[C@@H](O)[C@]1(C)O [Erythromycin] | 1.46 ± 0.065 | 1.89 ± 0.24 | 0.938 ± 0.38 | 0.579 ± 0.24 | 0.648 ± 0.2 | 
CCC1(c2ccccc2)C(=O)NCNC1=O [Primidone] | 1.32 ± 0.12 | 1.5 ± 0.32 | 0.893 ± 0.52 | 0.758 ± 0.2 | 0.816 ± 0.1 | 
OCc1cc(C(O)CNCCCCCCOCCCCc2ccccc2)ccc1O (centres undefined) [Salmeterol] | 0.109 ± 0.084 | 0.072 ± 0.019 | 0.0165 ± 0.018 | 0.469 ± 0.41 | 0 | 
NC(=O)c1cnccn1 [Pyrazinamide] | 0.984 ± 0.04 | 1.37 ± 0.32 | 0.659 ± 0.2 | 1.21 ± 0.15 | 0.803 ± 0.2 | 
O=C(C1CCCCC1)N1CC(=O)N2CCc3ccccc3C2C1 (centres undefined) [Praziquantel] | 1.25 ± 0.17 | 1.05 ± 0.054 | 0.534 ± 0.12 | 1.16 ± 0.15 | 0.88 ± 0.043 | 
CC(C)OC(=O)C(C)(C)Oc1ccc(C(=O)c2ccc(Cl)cc2)cc1 [Fenofibrate] | 1.46 ± 0.11 | 1.43 ± 0.2 | 0.378 ± 0.16 | 0.755 ± 0.18 | 0.346 ± 0.016 | 
CC(=O)OCC(=O)[C@@]12OC(C)(C)O[C@@H]1C[C@H]1[C@@H]3C[C@H](F)C4=CC(=O)C=C[C@]4(C)[C@@]3(F)[C@@H](O)C[C@@]12C [Fluocinolone acetonide 21-acetate] | 1.22 ± 0.022 | 0.964 ± 0.2 | 7.36 ± 2.4 | 3.73 ± 1.3 | 2.81 ± 0.57 | 
Cc1ccc(Cl)c(Nc2ccccc2C(=O)O)c1Cl [Meclofenamic acid sodium salt] | 1.25 ± 0.19 | 0.685 ± 0.21 | 0.285 ± 0.18 | 1.19 ± 0.16 | 0.767 ± 0.075 | 
CCN(CC)CCNC(=O)c1cc(Cl)c(N)cc1OC [Metoclopramide hydrochloride] | 1.38 ± 0.076 | 1.3 ± 0.32 | 0.537 ± 0.3 | 1.1 ± 0.28 | 1.12 ± 0.12 | 
CC1Cc2ccccc2N1NC(=O)c1ccc(Cl)c(S(N)(=O)=O)c1 (centres undefined) [Indapamide] | 1.19 ± 0.065 | 1.27 ± 0.26 | 0.832 ± 0.38 | 0.633 ± 0.29 | 0.799 ± 0.26 | 
CNC(=C[N+](=O)[O-])NCCSCc1ccc(CN(C)C)o1 [Ranitidine hydrochloride] | 1.24 ± 0.19 | 1.13 ± 0.19 | 0.697 ± 0.075 | 1.07 ± 0.088 | 1.31 ± 0.063 | 
CN1CCN(CCCN2c3ccccc3Sc3ccc(Cl)cc32)CC1 [Prochlorperazine maleate] | 0.0177 ± 0.018 | 0.107 ± 0.0085 |  | 3.45 ± 5.4 | 0.0333 ± 0.058 | 0.000284 ± 3.5e-05
Nc1ccn([C@@H]2O[C@H](CO)[C@@H](O)C2(F)F)c(=O)n1 [Gemcitabine hydrochloride] | 0.659 ± 0.12 | 0.394 ± 0.02 | 0.48 ± 0.27 | 1.31 ± 0.26 | 1.66 ± 0.26 | 
CCCc1c(OCCCCc2nnn[nH]2)ccc(C(C)=O)c1O | 1.55 ± 0.15 | 1.28 ± 0.27 | 0.752 ± 0.053 | 1.11 ± 0.11 | 1.2 ± 0.33 | 
CC(=O)OCC[N+](C)(C)C [Acetylcholine chloride] | 1.1 ± 0.1 | 1.14 ± 0.37 | 0.337 ± 0.15 | 1.03 ± 0.049 | 0.844 ± 0.22 | 
CO/N=C(\C(=O)N[C@@H]1C(=O)N2C(C(=O)O)=C(COC(C)=O)CS[C@H]12)c1csc(N)n1 [Cefotaxime sodium] | 1.45 ± 0.12 | 1.39 ± 0.17 | 3.62 ± 2.8 | 1.41 ± 0.88 | 1.19 ± 0.049 | 
CC(C)[C@H](N)C(=O)OCCOCn1cnc2c(=O)nc(N)[nH]c21 [Valaciclovir hydrochloride] | 1.34 ± 0.3 | 1.04 ± 0.047 | 0.25 ± 0.088 | 0.947 ± 0.16 | 1.14 ± 0.23 | 
COc1cc(OC)c(C(=O)CCCN2CCCC2)c(OC)c1 [Buflomedil hydrochloride] | 1.55 ± 0.1 | 1.11 ± 0.19 | 0.266 ± 0.11 | 0.801 ± 0.17 | 0.774 ± 0.14 | 
C[C@@H]1C[C@H]2[C@@H]3CCC4=CC(=O)C=C[C@]4(C)[C@@]3(F)[C@@H](O)C[C@]2(C)[C@@]1(O)C(=O)COP(=O)(O)O [Dexamethasone sodium phosphate] | 1.37 ± 0.04 | 1.26 ± 0.15 | 7.71 ± 0.4 | 2.36 ± 0.48 | 1.24 ± 0.036 | 

Reference: the supplement of paper PMC7238544
